Measurements published in PubChem BioAssay AID588855 (National Center for Advancing Translational Sciences (NCATS), 2011).
Screen size: about 410,000 compounds; about 5,000 (1.2%) were called active. This list was built around the results that the source calls inconclusive (neither active nor inactive); the mix of calls is not that of the screen. Calls come from the whole dose curve; as a rule, active = well fitted inhibition curve with a large enough effect; inconclusive = small, poorly fitted or top-dose-only effect; inactive = no such curve, though single readings can be large or run the other way. Potencies of inconclusive entries are doubtful fits and often do not repeat.

assay: qHTS for Inhibitors of TGF-b; settings: HepG2 CAGA-GFP TGF-b/SMAD3 reporter, GFP fluorescence, 18 h, TGF-beta stimulated, 500 pg/mL final; series mostly up to 46.1 µM; activity, negative = inhibition: at the top concentration; note: nearly all actives have a fitted effect of over 65% in size
Outline: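 Read-out: total well GFP (ex488/em500-530) summed from mean per-cell fluorescence. Cells: HEPG2 CAGA-GFP, 1% FBS DMEM, 18 h at 37 degrees C with 500 pg/mL final TGF-beta. Unstimulated wells served as the full-inhibition control; stimulated DMSO wells = 0%.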
% is set by controls: 0 for no effect and ±100 for the full control effect; potency is the fitted concentration of half-maximal effect; tags give direction and shape of the fitted curve.

| Structure (SMILES) | Potency | activity, negative = inhibition |
| --- | --- | --- |
| COc1ccc(C(=O)NCCOc2ccccc2Cl)c(OC)c1OC | inconclusive: 12.6 µM [inhibitor, partial curve, poor fit] | – |
| CC1CCCCN1C(=O)Cn1c(=O)n(-c2ccc(Cl)cc2)c(=O)c2c3c(sc21)CCC3 (stereo unspecified) | – | inactive: -17.3% |
| Cc1cc(Cl)ccc1OCc1cn2cccnc2n1 | inconclusive: 3.16 µM [inhibitor, single point] | – |
| COc1cc2cc(CNc3ccccc3)c(=O)n(CC(=O)Nc3ccccc3)c2cc1OC | inconclusive: 35.5 µM [inhibitor, single point] | – |
| COc1ccc(N2CCN(C(=O)c3cccc(-n4c(C)nc5cccnc54)c3)CC2)cc1 | – | inactive: -15.4% |
| COc1ccc(C2NC(=O)NC(C)=C2C(=O)OC2CCCC(C)C2)cc1 (stereo unspecified) | – | inactive: -1.32% |
| CN1N=C(N)c2cn(C3OC(COP(=O)(O)O)C(O)C3O)c3ncnc1c23 (stereo unspecified) | active: 0.282 µM | – |
| CCN(C1CCCCC1)S(=O)(=O)c1ccc(OC)c(C)c1 | – | inactive: 5.45% |
| O=C(CCSCCc1ccccn1)Nc1ccccn1 | – | inactive: 0% |
| CCCNS(=O)(=O)c1ccc2nc(NC(=O)c3ccc(F)cc3)sc2c1 | inconclusive: 35.5 µM [inhibitor, single point] | – |
| O=C(c1ccc(Br)cc1)N(Cc1nc2ccccc2c(=O)[nH]1)C1CCCC1 | active: 11.2 µM | – |
| CCCCC[C@@H]1C=C(C(=O)O)[C@H](c2ccc(F)cc2)N1S(=O)(=O)c1ccc(C)cc1 | inconclusive: 22.4 µM [inhibitor, single point] | – |
| CCc1cccc(-n2c(=O)c3cccnc3n2CC(=O)NCc2ccccc2)c1 | inconclusive: 12.6 µM [inhibitor, partial curve, poor fit] | – |
| C/C(CC(=O)Nc1ccc(Cl)cc1Cl)=N\NC(N)=S | inconclusive: 35.5 µM [inhibitor, single point] | – |
| O=C(NCCN1CCN(Cc2ccccc2)CC1)c1cc2c(=O)[nH]c3ccccc3c2s1 | inconclusive: 28.2 µM [inhibitor, single point] | – |
| CCOC(=O)c1cc(C)n(CC2CCC(C(=O)Nc3ccc(C(C)=O)cc3)CC2)c1C (stereo unspecified) | inconclusive: 11.2 µM [inhibitor, partial curve, poor fit] | – |
| CN1CCN(C(=O)CSc2nc(-c3ccncc3)ccc2C#N)CC1 | inconclusive: 5.62 µM [inhibitor, single point] | – |
| CCOc1ccc(/C=C/C(=O)Nc2sc3c(c2C(=O)OC)C(C(=O)OC)CC3)cc1 (stereo unspecified) | – | inactive: -1.1% |
| COC(=O)c1ccc(NC(=O)CSc2nc(C)cc(C)c2C(=O)Nc2ccccc2)cc1 | – | inactive: -1.46% |
| Cc1ccc(-n2c(SCC(=O)N3CCCc4ccccc43)nnc2-c2cccnc2)c(C)c1 | – | inactive: -5.44% |
| Cc1ccc(-c2nn(C)c(=O)c3ccccc23)cc1CNC(=O)/C=C/c1ccccc1 | – | inactive: -4.79% |
| O=C(CCCN1C(=O)CCC1=O)Nc1ccc2c(c1)OCO2 | inconclusive: 6.31 µM [inhibitor, single point] | – |
| N#C/C(=C\c1cn(-c2ccccc2)nc1-c1ccccc1)S(=O)(=O)c1ccccc1 | inconclusive: 6.31 µM [inhibitor, single point] | – |
| CCCn1ccc2c(OCC(=O)Nc3cc(C)ccc3C)cccc2c1=O | inconclusive: 35.5 µM [inhibitor, single point] | – |

| Structure (SMILES) | Potency | activity, negative = inhibition |
| --- | --- | --- |
| CCCN(C(=O)c1cccc(S(=O)(=O)N2CCCc3ccccc32)c1)C1CCS(=O)(=O)C1 (stereo unspecified) | – | inactive: -22% |
| CCCCCCn1c(=O)n2n(c1=O)C[C@]1(OC(=O)NCc3ccccc3)CN(S(=O)(=O)c3ccc(C)cc3)C[C@]1(O)C2 | inconclusive: 25.1 µM [inhibitor, single point] | – |
| Nc1c(C(=O)NCc2ccc(Cl)cc2Cl)nnn1Cc1ccc(Br)cc1 | inconclusive: 25.1 µM [inhibitor, single point] | – |
| Cc1sc2ncnc(N3CCC(C(=O)Nc4nnc(CC(C)C)s4)CC3)c2c1C | – | inactive: -9.5% |
| C/C(Cl)=C\Cn1c(O)c(N=NC(N)=S)c2cc(Br)ccc21 | inconclusive: 22.4 µM [inhibitor, single point] | – |
| Cc1ccc(C)c(NC(=O)C2(C)CC3c4ccccc4C2c2ccccc23)c1 (stereo unspecified) | – | inactive: -11.6% |
| CC(=O)c1sc(NC(=O)COc2ccc([N+](=O)[O-])cc2)nc1C | – | inactive: 5.39% |
| CCSc1nsc(NC(=O)Nc2cccc(F)c2)n1 | active: 7.08 µM | – |
| COc1cccc(NC(=O)Nc2nnc(Cc3ccccc3)s2)c1 | – | inactive: -18.6% |
| COc1ccc(S(=O)(=O)Cc2ccc(C(=O)NC3CC3)o2)cc1 | – | inactive: 34.5% |
| CSc1ccc(CNC(=O)C2CCCN(S(=O)(=O)N(C)c3ccc(F)cc3)C2)cc1 (stereo unspecified) | active: 4.47 µM | – |
| O=C(CC1(O)C(=O)N(CCc2ccccc2)c2ccc(Br)cc21)c1ccc(F)cc1 (stereo unspecified) | inconclusive: 15.8 µM [inhibitor, partial curve, poor fit] | – |
| Cc1nn(Cc2ccc(Cl)c(Cl)c2)c(C)c1NC(=O)c1noc2c1CCc1ccccc1-2 | inconclusive: 7.94 µM [inhibitor, partial curve, poor fit] | – |
| COc1ccc(CCNC(=S)NCc2ccc(Cl)c(Cl)c2)cc1OC | inconclusive: 35.5 µM [inhibitor, single point] | – |
| O=C(CSc1ccc(F)cc1)N1CCC(c2nc3ccccc3s2)CC1 | inconclusive: 35.5 µM [inhibitor, single point] | – |
| O=c1[nH]c(C2CCN(S(=O)(=O)c3ccc(C(F)(F)F)cc3)CC2)nc2c1nnn2Cc1ccccc1 | inconclusive: 35.5 µM [inhibitor, single point] | – |
| CC1CC(C)CN(C(=O)CSc2ncnc3sccc23)C1 (stereo unspecified) | – | inactive: 2.39% |
| O=C(NCC1CC1)c1onc(CSc2ccccc2)c1C(=O)NCC1CC1 | inconclusive: 35.5 µM [inhibitor, single point] | – |
| O=C(Cc1ccccc1)Nc1sc2c(c1C(=O)Nc1ccccc1)CCCCC2 | inconclusive: 31.6 µM [inhibitor, single point] | – |
| O=C(c1c(F)cccc1F)N1CCCC(c2nc(-c3ccc(Cl)cc3)no2)C1 (stereo unspecified) | inconclusive: 5.01 µM [inhibitor, full curve, poor fit] | – |
| C=CC[C@]12CCc3sccc3C1N(c1ccc(C(=O)OCC)cc1)C2=O (stereo partly specified) | inconclusive: 22.4 µM [inhibitor, single point] | – |
| CCc1ccc(-c2cc(C)no2)cc1S(=O)(=O)N1CCN(c2ccc(OC)cc2)CC1 | inconclusive: 10 µM [inhibitor, partial curve] | – |
| CCn1c(SCC(=O)N2CCCc3ccccc32)nnc1-c1c[nH]c2ccccc12 | inconclusive: 35.5 µM [inhibitor, single point] | – |
| O=[N+]([O-])c1ccccc1NCCOc1ccccc1 | inconclusive: 3.98 µM [inhibitor, single point] | – |

| Structure (SMILES) | Potency | activity, negative = inhibition |
| --- | --- | --- |
| COC(=O)c1ccc(C(=O)NC2CCCc3c2cnn3-c2ccc(C)c(C)c2)cc1 (stereo unspecified) | inconclusive: 17.8 µM [inhibitor, single point] | – |
| O=C(Cc1ccccc1)NCC1CCCO1 (stereo unspecified) | – | inactive: 3.45% |
| N#Cc1nc(N2CCCCC2)nc(N(c2ccccc2)c2ccccc2)n1 | – | inactive: 3.56% |
| O=C(C1CCCO1)N1CCN(C(=S)Nc2cccc(Cl)c2)CC1 (stereo unspecified) | inconclusive: 6.31 µM [inhibitor, single point] | – |
| N#Cc1ccc(Cn2c(=O)oc3ccccc32)cc1 | inconclusive: 35.5 µM [inhibitor, single point] | – |
| Cc1cc(C)c2c(N)c3cccc(C)c3nc2n1 | inconclusive: 35.5 µM [inhibitor, single point] | – |
| N/C(=N\OC(=O)c1ccc2ccccc2c1)c1ccccn1 | – | inactive: -9.35% |
| CCOC(=O)C1=CCC(c2cccn2C(=O)OC(C)(C)C)N(S(=O)(=O)c2ccc(C)cc2)C1 (stereo unspecified) | inconclusive: 22.4 µM [inhibitor, single point] | – |
| O=[N+]([O-])c1ccc2nc(-[n+]3c(-c4ccccc4)cc(-c4ccccc4)cc3-c3ccccc3)[nH]c2c1 | inconclusive: 20 µM [inhibitor, partial curve, poor fit] | – |
| Cc1cc(C)c(-n2c(SCCS(=O)(=O)c3ccc(F)cc3)n[nH]c2=O)c(C)c1 | – | inactive: -11.5% |
| C(=N\Nc1nc(Nc2ccccc2)nc(Nc2ccccc2)n1)/c1cccnc1 | – | inactive: -6.28% |
| COc1ccc(C2C=C3CNS(=O)(=O)C3CC2OC(=O)c2cccc(C)c2)cc1 (stereo unspecified) | inconclusive: 35.5 µM [inhibitor, single point] | – |
| Cc1cc(C)cc(N2C(=O)CC(Sc3nnnn3-c3ccccc3)C2=O)c1 (stereo unspecified) | – | inactive: -9.61% |
| COc1ccc(/C=N/NC(=O)c2ccc(=O)n(C)c2)cc1OC | – | inactive: -6.17% |
| N#Cc1c(N)c(C(=O)c2ccccc2)n2ccccc12 | inconclusive: 35.5 µM [inhibitor, single point] | – |
| CCCCN(CCCC)CC(O)COc1ccccc1C(=O)Nc1ccccc1 (stereo unspecified) | inconclusive: 35.5 µM [inhibitor, single point] | – |
| O=C(CC1N=C2c3ccccc3N=C(SCc3cccc(Cl)c3)N2C1=O)NC1CCCCC1 (stereo unspecified) | inconclusive: 0.0891 µM [inhibitor, full curve, poor fit] | – |
| CC1CCCC12NC(=O)NC2=O (stereo unspecified) | – | inactive: 0% |
| O=c1c2ccc([N+](=O)[O-])cc2ncn1CCOc1ccc(Cl)cc1 | inconclusive: 22.4 µM [inhibitor, single point] | – |
| COc1ccc(NC(=O)CN2C(=O)c3cccc4cccc2c34)cc1OC | inconclusive: 35.5 µM [inhibitor, single point] | – |
| NS(=O)(=O)c1ccc(CNC(=O)C2(c3ccc(Cl)cc3)CC2)cc1 | – | inactive: -8.35% |
| CCCCCNC(=O)C1CCC(Cn2c(=O)c3sccc3n(CC(=O)N3CCCC3)c2=O)CC1 (stereo unspecified) | – | inactive: -8.01% |
| CSc1ncc(C(=O)Nc2ccc(Cl)cc2)c(C)n1 | inconclusive: 2.24 µM [inhibitor, partial curve] | – |
